Test results published in ChEMBL document CHEMBL1201862, “PubChem BioAssay data set” (2004).
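Values below derive from 48-hour exposures of cells grown in 96-well plates, with endpoints linearly interpolated between the two concentrations bracketing the appropriate inhibition level. Here, GI50 denotes the concentration required for 50% inhibition of growth.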 The source made the active and inactive calls. Cut-off read from the data, not from the text of the source: active = GI50 up to about 1.1 µM and inactive = higher. Numbered stars: 1 amine (or outer) side, 2 acyl side, 3 side chain; on linkers, the order of the positions; unused ones are H or OH. Bridge positions count the residues as written; N and C are the ends. Square brackets hold non-standard residues; d marks the D form. Peptide text beside a SMILES is read from it. I, II: the chains in the order shown. * marks the point of attachment. ξ: configuration not given here. γ4hArg(2R,3R-(OH)2) = N=C(N)NCCC[C@H](N[*:1])[C@@H](O)[C@@H](O)C(=O)[*:2]; Actinocin(1to9) = Cc1c2oc3c(C)ccc(C(=O)[*:2])c3nc-2c(C(=O)[*:1])c(N)c1=O; Gln(3S,4R-Me2) = C[C@H]([C@H](N)C(=O)O)[C@@H](C)C(N)=O; X35 = CC[C@H](C)[C@@H](N[*:1])[C@@H](O)CC(=O)[*:2]; X46 = CC(C)C[C@H](C)[C@@H](O)[C@@H](C)C(=O)*; Quinoxaline2carbonyl = O=C(c1cnc2ccccc2n1)*; X38 = CCC(=O)CC(O)CC(C)CC(N[*:1])C(=O)[*:2]; X41 = CCC(=O)CC1CC(C)CC(C(=O)[*:2])N1[*:1]; X4 = C[C@H](N[*:1])C(=O)C(C)(C)C(=O)[*:2]; X47 = COC(c1ccc(O)cc1)C(N[*:1])C(=O)[*:2]; Hmpa(2S,3S) = CC[C@H](C)[C@H](O)C(=O)O; X33 = O=C(c1ccc(-c2ccc(Cl)cc2Cl)o1)*; NMeY = CN[C@@H](Cc1ccc(O)cc1)C(=O)O; ξLeu(3ξ-OH) = CC(C)C(O)C(N)C(=O)O; NMeQ = CN[C@@H](CCC(N)=O)C(=O)O; aThr = C[C@H](O)[C@H](N)C(=O)O; ξPro(4ξ-Me) = CC1CNC(C(=O)O)C1; NMeL = CN[C@@H](CC(C)C)C(=O)O; Thr(3ξ) = CC(O)[C@H](N)C(=O)O; X28 = C=CCC(O[*:1])C(=O)[*:2]; dNMeL = CN[C@H](CC(C)C)C(=O)O; NMeV = CN[CH](C(=O)O)C(C)C; Hiv = CC(C)[C@H](O)C(=O)O; X25 = COc1ccc(CN*)c(OC)c1; NMeA = CN[CH](C)C(=O)O; Octanoyl = CCCCCCCC(=O)*; X40 = CCCCCCCCC(C)C(=O)*; dNMeA = CN[C@H](C)C(=O)O; Ac5c = NC1(C(=O)O)CCCC1; NMeC = CN[CH](CS)C(=O)O; Pyruvoyl = CC(=O)C(=O)*; X37 = CCC(C)/C=C/C(=O)*; Boc = CC(C)(C)OC(=O)*; Aib = CC(C)(N)C(=O)O; X42 = CC(CN(C)CCO)N*; X39 = CC(CN(C)C)N*; βAla = NCCC(=O)O; Sar = CNCC(=O)O; tBu = CC(C)(C)*

Tested on: NCI-H322M
Test: growth of human tumour cells (NCI), 48 h

Row | Compound | GI50
1 | CC1NC(=O)C(NC(=O)c2cnc3ccccc3n2)COC(=O)C(C(C)C)N(C)C(=O)C2CSSCC(C(=O)N(C)C(C(C)C)C(=O)OCC(NC(=O)c3cnc4ccccc4n3)C(=O)NC(C)C(=O)N2C)N(C)C1=O (centres undefined) (I: Quinoxaline2carbonyl-SA[NMeC][NMeV] / II: Quinoxaline2carbonyl-SA[NMeC][NMeV]; ester I:1-II:C, I:C-II:1; disulfide I:3-II:3; configuration not given here) | active: < 10 nM
2 | CCC(C)C1NC(=O)C(NC(=O)c2c3nc4c(C(=O)NC5C(=O)NC(C(C)CC)C(=O)N6CCCC6C(=O)N(C)CC(=O)N(C)C(C(C)C)C(=O)OC5C)ccc(C)c4oc-3c(C)c(=O)c2N)C(C)OC(=O)C(C(C)C)N(C)C(=O)CN(C)C(=O)C2CCCN2C1=O (centres undefined) (I: TIP[Sar][NMeV] / II: TIP[Sar][NMeV]; ester I:1-I:C, II:1-II:C; linker I:N-II:N via Actinocin(1to9); configuration not given here) | active: 1.71 nM
3 | Cc1c2oc3c(C)ccc(C(=O)N[C@@H]4C(=O)N[C@H](C(C)C)C(=O)N5CCC[C@H]5C(=O)N(C)CC(=O)N(C)[C@@H](C(C)C)C(=O)O[C@H]4C)c3nc-2c(C(=O)N[C@@H]2C(=O)N[C@H](C(C)C)C(=O)N3CCC[C@H]3C(=O)N(C)CC(=O)N(C)[C@@H](C(C)C)C(=O)O[C@H]2C)c(N)c1=O (I: [aThr][dV]P[Sar][NMeV] / II: [aThr][dV]P[Sar][NMeV]; ester I:1-I:C, II:1-II:C; linker I:N-II:N via Actinocin(1to9)) | active: 2.21 nM
4 | CCCCCCCC(=O)N[C@H](C(=O)N[C@H](C(=O)N(C)[C@H](C(=O)N1CCC[C@H]1C(=O)N(C)[C@H](C)C(=O)NCc1ccc(OC)cc1OC)C(C)C)C(C)C)C(C)C (Octanoyl-VV[NMeV]P[dNMeA]-X25) | inactive: 20700 nM
5 | CC[C@H](C)[C@H]1NC(=O)[C@@H](NC(=O)[C@@H](CC(C)C)N(C)C(=O)[C@@H]2CCCN2C(=O)C(C)=O)[C@@H](C)OC(=O)[C@H](Cc2ccc(OC)cc2)N(C)C(=O)[C@@H]2CCCN2C(=O)[C@H](CC(C)C)NC(=O)[C@H](C(C)C)OC(=O)C[C@@H]1O (Pyruvoyl-P[dNMeL]T[X35][Hiv]LP[NMeY](Me); ester 3-C) | active: 4.67 nM
6 | CCC(C)C(NC(=O)CNC(=O)C(Cc1ccccc1)NC(=O)C1CCCN1C(=O)c1ccc(-c2ccc(Cl)cc2Cl)o1)C(=O)OC (centres undefined) (X33-PFGI-OMe; configuration not given here) | inactive: 48600 nM
7 | CCC(=O)CC(O)CC(C)CC(NC(=O)C1CC(C)CN1C(=O)/C=C/C(C)CC)C(=O)NC(C(=O)NC(C)(C)C(=O)NC(CC(C)C)C(=O)NC(CC(C)C)C(=O)NC(C)(C)C(=O)NC(C)(C)C(=O)NCCC(=O)NC(C)CN(C)C)C(O)C(C)C (centres undefined) (X37-[ξPro(4ξ-Me)][X38][ξLeu(3ξ-OH)][Aib]LL[Aib][Aib][βAla]-X39; configuration not given here) | inactive: 2140 nM
8 | CCCCCCCCC(C)C(=O)N1CCCC1C(=O)N1C(CC(=O)CC)CC(C)CC1C(=O)NC(C)C(=O)NC(C)(C)C(=O)NC(C)(C)C(=O)NC(C(=O)NC(C)C(=O)NC(C)(C)C(=O)NC(C)(C)C(=O)NC(C)CN(C)CCO)C(C)CC (centres undefined) (X40-P[X41]A[Aib][Aib]IA[Aib][Aib]-X42; configuration not given here) | active: 406 nM
9 | COC(c1ccc(O)cc1)C1NC(=O)[C@H](CCC(N)=O)N(C)C(=O)[C@H](CC(C)C)NC(=O)[C@@H](CCCN=C(N)N)NC(=O)[C@H](C(C)O)NC(=O)[C@@H](NC(=O)[C@@H](NC(=O)[C@H](O)[C@H](O)[C@H](CCCN=C(N)N)NC(=O)[C@H](C)NC(=O)[C@H](C)[C@H](O)[C@@H](C)CC(C)C)[C@@H](C)[C@@H](C)C(N)=O)[C@@H](C)OC(=O)[C@H](C)N(C)C1=O (stereo partly drawn) (X46-A[γ4hArg(2R,3R-(OH)2)][Gln(3S,4R-Me2)]T[Thr(3ξ)][dR]L[NMeQ][X47][NMeA]; ester 4-C) | active: 355 nM
10 | CC[C@H](C)[C@@H]1OC(=O)CCNC(=O)[C@@H](C)NC(=O)C(C)(C)C(=O)[C@H](C)NC(=O)[C@H](Cc2ccc(OC)cc2)N(C)C(=O)[C@H](C(C)C)N(C)C(=O)CNC(=O)[C@H](CC(C)C)N(C)C(=O)CNC1=O (cyclo(G[NMeL]G[NMeV][NMeY](Me)[X4][dA][βAla][Hmpa(2S,3S)])) | inactive: 6220 nM
11 | CC(OC(C)(C)C)C1NC(=O)C(CCCCNC(=O)OC(C)(C)C)NC(=O)C(Cc2c[nH]c3ccccc23)NC(=O)C(Cc2ccccc2)NC(=O)C2(CCCC2)NC(=O)C(Cc2ccccc2)NC1=O (centres undefined) (cyclo([Ac5c]FWK(Boc)T(tBu)F); configuration not given here) | inactive: 38900 nM
12 | C=CCC1OC(=O)CCNC(=O)C(C)N(C)C(=O)C(C(C)C)N(C)C(=O)C(C(C)CC)NC(=O)C2CCCN2C1=O (centres undefined) (cyclo([X28]PI[NMeV][NMeA][βAla]); configuration not given here) | inactive: 23700 nM
13 | CCCCC[C@@H]1OCO[C@@]2(C)/C=C(C)\C=C/C(=O)O[C@H]([C@@H](C)[C@@H](O)[C@H](C)[C@@]3(O)C[C@@H](O[C@H]4C[C@@H](O)[C@H](O)[C@@H](C)O4)[C@H](C)[C@@H](C)O3)[C@@H](OC)/C=C\C=C(\C)C[C@@H]1[C@@H]2O (stereo in doubt) | active: 54.7 nM
14 | CC(C)[C@H](CCl)NC(=O)c1cccc(C(=O)N[C@H](CCl)C(C)C)n1 (stereo in doubt) | inactive: > 100000 nM
